# Experimental data taken from PubChem BioAssay AID686979 (National Center for Advancing Translational Sciences (NCATS), 2013).
# Values joined by “and” are separate entries in the source; they are usually repeats but may differ in a detail not shown here. Identical values can stand only once. Out of some 420,000 compounds screened, about 50,000 (12%) were called active. Inconclusive means that the source gave no clear call. Such entries were picked first, then a sample of the others. The call rests on the fitted dose curve; in most records, active means well fitted inhibition curve with a large enough effect; inconclusive means small, poorly fitted or top-dose-only effect; inactive means flat fitted curve, though single readings scatter. Potencies of inconclusive entries are doubtful fits and often do not repeat.
# Assay: qHTS for Inhibitors of human tyrosyl-DNA phosphodiesterase 1 (TDP1): qHTS in cells in presence of CPT; further: nearly all actives have a fitted effect of over 55% in size
# Details: chicken DT40 Tdp1-/-;hTDP1 cells + 20 nM CPT, ATP luminescence, 48 h; activity change, negative = growth inhibition: at 46.2 µM (top of the series) unless noted
# Procedure, shortened: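 Chicken DT40 Tdp1-/- cells stably complemented with human TDP1 were seeded at 400 cells/well in medium containing 20 nM camptothecin, exposed to pin-transferred compounds, and grown at 37 °C for at least 48 hr. Viability was read as ATP luminescence.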
# On the % scale 0 is the no-effect control and ±100 the full control effect; potency means the concentration at half of the fitted maximal effect; tags describe the fitted curve by direction and shape.
SMILES,"activity change, negative = growth inhibition",Potency
CCC(=O)N/N=C(\C)CC(=O)Nc1cc(Cl)ccc1C,inactive: 4.98%,
O=C(COc1ccccc1F)N1CCN(S(=O)(=O)/C=C/c2ccccc2)CC1,inactive: -4.64%,
COc1cc(C(=O)N2CCN(Cc3ccccc3C(F)(F)F)CC2)cc(OC)c1OC,,"inconclusive: 29.1 µM [inhibitor, single point]"
CCOC(=O)c1c(CN2CCCCC2)oc2ccc(OC)cc12,,"inactive and inconclusive: 29.1 µM [inhibitor, single point]"
Cc1cccc(NC(=O)NCC2CCN(c3ccc(S(=O)(=O)N4CCOCC4)cc3)CC2)c1,,"inconclusive: 23.1 µM [inhibitor, partial curve, poor fit]"
COCCn1c(-c2ccc(OC)cc2)cnc1SCC(=O)Nc1cccc2ccccc12,,"inconclusive: 25.9 µM [inhibitor, single point]"
Cc1cc(C)cc(C(=O)Nc2c(C(=O)Nc3ccccc3F)oc3ccccc23)c1,,"inconclusive: 18.4 µM [inhibitor, single point]"
CCOc1ccccc1NC(=O)COC(=O)C1CC(=O)N(c2c(C)cccc2C)C1 (stereo unspecified),inactive: -9.92%,
N=c1c(C(=O)NC2CCCCC2)cc2c(=O)n3ccccc3nc2n1Cc1cccnc1,inactive: 1.35%,
CCOC(=O)c1ccc(S(=O)(=O)N2CCN(CC(=O)NC(=O)NC3CCCCC3)CC2)cc1,inactive: -20.3%,
O=C(NCCc1c[nH]c2ccccc12)OCCCCOC(=O)NCCc1c[nH]c2ccccc12,,active: 18.4 µM
COc1ccccc1Nc1nc(N)nc(CSc2nnc(C)s2)n1,inactive: -23.6%,
CCN(CC)S(=O)(=O)c1ccc(OC)c(NS(=O)(=O)Cc2ccccc2)c1,inactive: -0.595%,
O=C(Nc1cccc(-c2nc3ncccc3o2)c1)c1cc2ccccc2o1,,active: 20.6 µM
COc1ccc(C(=O)NCCN2Cc3cc(C)ccc3OC(C)C2)c(OC)n1 (stereo unspecified),inactive: 7.83% [at 9.04 µM],
Cc1nc(N)c(C#N)c(-c2cccnc2)c1C,,"inconclusive: 0.517 µM [inhibitor, full curve, poor fit]"
Cc1ccccc1OCCC(=O)OCC(=O)N1c2ccccc2NC(=O)C1(C)C,,"inconclusive: 16.4 µM [inhibitor, partial curve, poor fit]"
Cc1ccc(S(=O)(=O)NC(=O)c2ccc(-c3ccc(C)c4ccccc34)o2)cc1,,"inconclusive: 29.1 µM [inhibitor, single point]"
O=c1cc(-c2ccccc2)nc2nc(-c3ccco3)[nH]n12,,"inconclusive: 25.9 µM [inhibitor, single point]"
Cc1oc(C(=O)O)cc1COc1ccc2c3c(c(=O)oc2c1)CCC3,inactive: 0.551%,
CC(=O)c1cc2c(cc1N/C(=N/S(=O)(=O)c1ccccc1)c1ccc(Cl)cc1)OCO2,,inactive
O=C(NCCC1=CCCCC1)C1CCN(S(=O)(=O)N2CCCC2)CC1,,"inconclusive: 25.9 µM [inhibitor, single point]"
N#CN/C(=N\S(=O)(=O)c1ccccc1)c1ccccc1,inactive: 42%,
COc1ccc(NC(=O)c2cccc(S(=O)(=O)Nc3ccc(Br)cc3)c2)cn1,,"inconclusive: 23.1 µM [inhibitor, single point]"

SMILES,"activity change, negative = growth inhibition",Potency
CCN(CC)CCNC(=O)c1ccc(-c2nc(CS(=O)(=O)c3ccc(C)cc3)c(C)o2)cc1,inactive: -10.3%,
CC(C)c1ccc(NC(c2nnc(-c3ccccc3)o2)c2ccc(F)cc2Cl)cc1 (stereo unspecified),,"inconclusive: 29.1 µM [inhibitor, single point]"
Cc1cc(C)c(OCC(=O)Nc2nc(-c3ccccn3)cs2)c(C)c1,,active: 3.66 µM
O=C(CSc1cccc2cccnc12)N/N=C/c1cccnc1,,active: 23.1 µM
CCOC(=O)N1CCN(CCC(=O)c2ccc(Cl)cc2)CC1,,active: 2.31 µM
Cc1cc(OC(C)C(=O)NNC(=O)Nc2ccc(F)cc2F)cc(C)c1Cl (stereo unspecified),inactive: -28.5%,
COc1ccccc1-c1nnc(C2CCN(S(=O)(=O)c3ccc(CC(C)C)cc3)CC2)o1,,"inconclusive: 25.9 µM [inhibitor, single point]"
COc1ccc(F)c(CN2CCC(CO)(Cc3cccc(C(F)(F)F)c3)CC2)c1,,"inconclusive: 29.1 µM [inhibitor, single point]"
Cc1ccnc(N2CCN(C(=O)CSc3nc4ccccc4nc3N3CCC(C)CC3)CC2)c1,,"inconclusive: 20.6 µM [inhibitor, single point]"
CCOc1ncccc1C(=O)Nc1nc(C(C)(C)C)cs1,,"inconclusive: 14.6 µM [inhibitor, partial curve, poor fit]"
Nc1c(C(=O)Nc2ccc(C(F)(F)F)cc2)sc2nc(-c3cccs3)ccc12,inactive: 11.1%,
Cc1ccc(S(=O)(=O)CC(=O)Nc2sc(C)c(C)c2C(N)=O)cc1,inconclusive: -30.8% [inhibitor],
CCCCc1c(C)c(C#N)c2nc3ccccc3n2c1Nc1c(C)n(C)n(-c2ccccc2)c1=O,,active: 23.1 µM
CCc1ccccc1NC(=O)CN(C)C(=O)c1cc(C2CC2)nc2c1cnn2C(C)C,inactive: -23.6%,
Cc1cc(C)c2c(CN3CCN(Cc4ccccc4)CC3)cc(=O)oc2c1,,"inconclusive: 29.1 µM [inhibitor, single point]"
CNc1ncnc2c1ncn2[C@H]1CN(CCN2CCOCC2)C[C@@H](CO)O1,inactive: 10.7%,
N=c1n(CCN2CCCC2)c2ccccc2n1CC(O)c1ccco1 (stereo unspecified),inactive: -25.6%,
O=C(CCc1ccccc1)NCc1ccc2c(c1)CCN2C(=O)c1ccccc1,,active: 10.3 µM
COc1ccccc1NC(=O)c1oc2ccccc2c1NC(=O)Cc1cccs1,,"inconclusive: 8.2 µM [inhibitor, single point]"
COc1ccc(OC)c(C2=NOC(C(=O)NCc3cccs3)C2)c1 (stereo unspecified),,"inconclusive: 20.6 µM [inhibitor, single point]"
CC(=O)N1CCc2c(sc3c2c(=O)n(CCc2ccccc2)c(=O)n3CC(=O)Nc2ccccc2F)C1,,"inconclusive: 29.1 µM [inhibitor, single point]"
CCC(C(=O)Nc1c[nH]c(=O)[nH]c1=O)c1ccccc1 (stereo unspecified),inactive: -6.52%,
Cc1cccc(C(=O)NC2CCN(S(=O)(=O)c3ccccc3F)CC2)c1,,"inconclusive: 16.4 µM [inhibitor, single point]"
C=C1CCN([C@@H](Cc2ccccc2)C(=O)NC2CCN(Cc3ccccc3)CC2)S(=O)(=O)c2ccccc21,,"inconclusive: 25.9 µM [inhibitor, single point]"

SMILES,"activity change, negative = growth inhibition",Potency
Cc1nccn1-c1ncnc2sc3c(c12)CCCC3,inconclusive: -34.4% [inhibitor],
CCc1c(O)nc(SCC(=O)c2ccccc2)n(-c2ccccc2)c1=O,,"inconclusive: 16.4 µM [inhibitor, partial curve]"
Cn1cc(C(=O)O)c(=O)c2cc(S(=O)(=O)N3CCOCC3)ccc21,,active: 16.4 µM
O=C(Nc1ccccc1)c1cc(C2CCCCN2S(=O)(=O)c2ccccc2)on1 (stereo unspecified),,"inconclusive: 29.1 µM [inhibitor, single point]"
CCOC(=O)c1nc(Nc2cc(C)cc(C)c2)c2ccccc2n1,,active: 18.4 µM
CCC(c1nnnn1-c1ccc2c(c1)OCCO2)N1CCN(c2ccccc2)CC1 (stereo unspecified),,"inconclusive: 23.1 µM [inhibitor, single point]"
COc1cc2c(cc1OC)C(c1ccc(Cl)cc1)N(c1cccc(C#N)c1)C(=O)C2 (stereo unspecified),,active: 23.1 µM
COc1ccc(-c2cc3c(=O)n(CC(=O)Nc4cccc(Cl)c4)nc(C)n3n2)cc1,,active: 14.6 µM
O=C(NCC1CCCO1)c1ccc2c(=O)n(Cc3cccc(Br)c3)c(=S)[nH]c2c1 (stereo unspecified),,"inconclusive: 23.1 µM [inhibitor, single point]"
Cc1cc(C)c(S(=O)(=O)n2ccc(-c3ccc(OCCN(C)c4ccccn4)cc3)n2)c(C)c1,inactive: -2.68%,
CCOC(=O)[C@]12CCCC=C1N(Cc1ccccc1)C(=O)[C@H](CC(=O)N1CCOCC1)C2,inactive: 12.2%,
CCNC(=S)N(Cc1ccco1)Cc1cc2cc(OCC)ccc2[nH]c1=O,,"inconclusive: 29.1 µM [inhibitor, single point]"
COc1ccccc1N1CCN(c2ccc(=O)n(CC(=O)Nc3cc(F)ccc3C)n2)CC1,,active: 14.6 µM
CC1C/C(=N\NC(=S)NC(C)C)CC(C)(C)C1 (stereo unspecified),,active: 10.3 µM
Cc1cc2nccc(-c3ccncc3)n2n1,,"inconclusive: 18.4 µM [inhibitor, partial curve]"
O=C(CN1CCN(C(=O)c2ccco2)CC1)Nc1cc(S(=O)(=O)N2CCCC2)ccc1Cl,,"inconclusive: 20.6 µM [inhibitor, partial curve]"
CNC(=O)CC1C(=O)N(c2ccc(Cl)cc2)C(=S)N1CCc1ccc(OC)c(OC)c1 (stereo unspecified),,"inconclusive: 25.9 µM [inhibitor, single point]"
Cc1ccc(NC(=O)[C@@H]2O[C@H](CO)[C@@H](O)[C@H]2O)cc1C(F)(F)F,,"inconclusive: 18.4 µM [inhibitor, single point]"
COc1cccc(NC(=O)Cn2c(=O)n(-c3ccccc3)c(=O)c3ccc(C(=O)NCc4ccc5c(c4)OCO5)cc32)c1,,"inconclusive: 3.66 µM [inhibitor, partial curve]"
CSc1nc(N)nc(SCC(=O)C23CC4CC(CC(C4)C2)C3)c1C#N,,"inconclusive: 23.1 µM [inhibitor, single point]"
CCC(NC(C)C)C(O)c1ccc(O)c(O)c1 (stereo unspecified),,"inconclusive: 25.9 µM [inhibitor, single point]"
Cc1nn(Cc2ccc(Cl)cc2)c(C)c1NC(=O)c1cc(-c2ccco2)on1,,active: 13 µM
CCOc1cccc2sc(=NC(=O)CCS(=O)(=O)c3ccc(F)cc3)n(C)c12,,"inconclusive: 25.9 µM [inhibitor, single point]"
